The source of these data is PMC9911399, “Two distinct binding modes provide the RNA-binding protein RbFox with extraordinary sequence specificity”.

T1: RBFOX1 RRM RbFoxmut (Fox-RRM*) (Homo sapiens, UniProt Q9NWB1 109-208, R118D;E147R;N151S;E152T)
T1 sequence: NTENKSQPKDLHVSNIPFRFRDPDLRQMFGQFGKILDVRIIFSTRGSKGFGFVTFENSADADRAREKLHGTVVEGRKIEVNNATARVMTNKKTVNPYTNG

B1: UUACUUA (DNA:RNA)
RNA: GGGAGACCGGAAUUCAGAUUGUCCUUACUUAUUAAAUCCCGUCGUAGCCACCA
DNA 1: CAATCTGAATTCCGGTCTCCC
DNA 2: TGGTGGCTACGACGGGATT
B2: GAGGAAC (DNA:RNA)
RNA: GGGAGACCGGAAUUCAGAUUGUCCGAGGAACUUAAAUCCCGUCGUAGCCACCA
DNA 1: CAATCTGAATTCCGGTCTCCC
DNA 2: TGGTGGCTACGACGGGATT
B3: GUUUGCU (DNA:RNA)
RNA: B2 RNA with A26U, G27U, G28U, A29G, A30C, C31U
DNA 1: CAATCTGAATTCCGGTCTCCC
DNA 2: TGGTGGCTACGACGGGATT
B4: AAGGGAU (DNA:RNA)
RNA: B2 RNA with G25A, A29G, C31U
DNA 1: CAATCTGAATTCCGGTCTCCC
DNA 2: TGGTGGCTACGACGGGATT
B5: AUGUUUA (DNA:RNA)
RNA: B1 RNA with U25A, A27G, C28U
DNA 1: CAATCTGAATTCCGGTCTCCC
DNA 2: TGGTGGCTACGACGGGATT
B6: AGUCGAU (DNA:RNA)
RNA: B2 RNA with G25A, A26G, G27U, G28C, A29G, C31U
DNA 1: CAATCTGAATTCCGGTCTCCC
DNA 2: TGGTGGCTACGACGGGATT
B7: GAAGGGG (DNA:RNA)
RNA: B2 RNA with G27A, A29G, A30G, C31G
DNA 1: CAATCTGAATTCCGGTCTCCC
DNA 2: TGGTGGCTACGACGGGATT
B8: UCUGACA (DNA:RNA)
RNA: B2 RNA with G25U, A26C, G27U, A30C, C31A
DNA 1: CAATCTGAATTCCGGTCTCCC
DNA 2: TGGTGGCTACGACGGGATT
B9: CCCGCAG (DNA:RNA)
RNA: B2 RNA with G25C, A26C, G27C, A29C, C31G
DNA 1: CAATCTGAATTCCGGTCTCCC
DNA 2: TGGTGGCTACGACGGGATT
B10: CCCUGCA (DNA:RNA)
RNA: B1 RNA with U25C, U26C, A27C, C28U, U29G, U30C
DNA 1: CAATCTGAATTCCGGTCTCCC
DNA 2: TGGTGGCTACGACGGGATT
B11: CUGUGCG (DNA:RNA)
RNA: B2 RNA with G25C, A26U, G28U, A29G, A30C, C31G
DNA 1: CAATCTGAATTCCGGTCTCCC
DNA 2: TGGTGGCTACGACGGGATT
B12: GAGAAAU (DNA:RNA)
RNA: B2 RNA with G28A, C31U
DNA 1: CAATCTGAATTCCGGTCTCCC
DNA 2: TGGTGGCTACGACGGGATT
B13: CAUAUUA (DNA:RNA)
RNA: B1 RNA with U25C, U26A, A27U, C28A
DNA 1: CAATCTGAATTCCGGTCTCCC
DNA 2: TGGTGGCTACGACGGGATT
B14: GGACACC (DNA:RNA)
RNA: B2 RNA with A26G, G27A, G28C, A30C
DNA 1: CAATCTGAATTCCGGTCTCCC
DNA 2: TGGTGGCTACGACGGGATT
B15: GUAUACG (DNA:RNA)
RNA: B2 RNA with A26U, G27A, G28U, A30C, C31G
DNA 1: CAATCTGAATTCCGGTCTCCC
DNA 2: TGGTGGCTACGACGGGATT
B16: AGGCAUC (DNA:RNA)
RNA: B2 RNA with G25A, A26G, G28C, A30U
DNA 1: CAATCTGAATTCCGGTCTCCC
DNA 2: TGGTGGCTACGACGGGATT
B17: UAUGAUG (DNA:RNA)
RNA: B2 RNA with G25U, G27U, A30U, C31G
DNA 1: CAATCTGAATTCCGGTCTCCC
DNA 2: TGGTGGCTACGACGGGATT
B18: CAACGGA (DNA:RNA)
RNA: B1 RNA with U25C, U26A, U29G, U30G
DNA 1: CAATCTGAATTCCGGTCTCCC
DNA 2: TGGTGGCTACGACGGGATT
B19: UACACUA (DNA:RNA)
RNA: B1 RNA with U26A, A27C, C28A, U29C
DNA 1: CAATCTGAATTCCGGTCTCCC
DNA 2: TGGTGGCTACGACGGGATT
B20: AUACAAG (DNA:RNA)
RNA: B1 RNA with U25A, U29A, U30A, A31G
DNA 1: CAATCTGAATTCCGGTCTCCC
DNA 2: TGGTGGCTACGACGGGATT

Changes are numbered by the printed parent chain; changes in the protein carry UniProt numbers. Some of the results follow.

The test deals with T1, RBFOX1 RRM RbFoxmut (Fox-RRM*). The test can be described thus: EMSA; HiTS-Eq, 1 nM pool, 10 min; buffer printed only for the single-RNA assays: 10 mM Tris pH 7.5, 150 mM NaCl, 3.4 mM EDTA, 0.001% NP-40, 30 C. Conditions: tags: His6 N-terminal (pET28a); label: 5' 32P. The procedure, abridged: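 Purified RbFox RRM (wild type or mutant) was equilibrated for 10 min in 50 µL with 1 nM of a 5′-radiolabelled pool of RNA with 7 randomized nucleotides, its flanks annealed to DNA oligonucleotides, across increasing protein concentrations. Free RNA was separated by 8% native PAGE, excised, reverse-transcribed, PCR-barcoded and sequenced on an Illumina HiSeq 2500. Relative association constants came from read-count changes of each variant against the control reaction, normalised to the cognate motif.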
Background: Mobility shift assays separate free from complexed probe on a gel.
Take B1: the binding signal was 0.124 KA relative to UGCAUGU.
As to B2, the binding signal was 0.0766 KA relative to UGCAUGU.
As for B3, the figure is 0.223 KA relative to UGCAUGU; as for B4, 0.0935 KA relative to UGCAUGU; as for B5, 0.175 KA relative to UGCAUGU.
As for B6, the figure is 0.0858 KA relative to UGCAUGU; as for B7, 0.0469 KA relative to UGCAUGU.
As for B8, the figure is 0.0549 KA relative to UGCAUGU.
Take B9: the binding signal is 0.102 KA relative to UGCAUGU.
On to B10, for which the binding signal was 0.186 KA relative to UGCAUGU.
The value for B11 was 0.257 KA relative to UGCAUGU; that for B12 was 0.0893 KA relative to UGCAUGU.
The value for B13 was 0.115 KA relative to UGCAUGU; that for B14 was 0.0634 KA relative to UGCAUGU.
The value for B15 was 0.148 KA relative to UGCAUGU; that for B16 was 0.222 KA relative to UGCAUGU.
For the molecule B17, the binding signal is 0.0936 KA relative to UGCAUGU.
B18: the binding signal is 0.0691 KA relative to UGCAUGU.
For B19, the binding signal is 0.0954 KA relative to UGCAUGU.
Take B20: the binding signal was 0.0924 KA relative to UGCAUGU.
